Experimental data: patent EP4810513A1 (Genexine, Inc., dated 2026)

B1: 3F11-Fc (sdAb-Fc) (Fc fusion)
chain: [human IgG1 constant region skipped]GGGGSGGGGSGGGGSDVQLVESGGGLVQPGGSLRLSCATSGFTFSSSTMSWVRQVPGAGPEWVAVDNPGGKKNYIDSVAGRFTIARDNDANSLSLVMNGLRPEDTARYFCARVLSFKIYEGDKWALEWDYRGPGTQVTVSS
notes: Expressed in Expi-CHO-S, purified on Protein A; also called 3F112-Fc
B2: 3A2-Fc (sdAb-Fc) (Fc fusion)
chain: [human IgG1 constant region skipped]GGGGSGGGGSGGGGSEVQLVESGGEQVQPGSSLKLSCSVSGLMISGHAMSWVRQVPGAGPEWVAVDNPGGKKNYIDSVAGRFTIARDNDANSLSLVMNGLRPEDTARYFCARVLSFKIYEGDKWALEWDYRGPGTQVTVSS
B3: 3H9-Fc (sdAb-Fc) (Fc fusion)
chain: [human IgG1 constant region skipped]GGGGSGGGGSGGGGSQVQLVESGGEQVQPGSSLKLSCSVSGLMISGHAMSWVRQVPGAGPEWVAVDNPGGKKNYIDSVAGRFTIARDNDANSLSLVMNGLRPEDTARYFCARVLSFKIYGGDKWALEWDYRGPGTQVTVSS

Biological target: T1, human SRY-box transcription factor 2 (huSOX2) with C-terminal 6×His-tag, produced by Biointron (human, UniProt P48431)
T1 construct: also called huSOX2 protein; biotinylated huSOX2 (Biointron)
Assay: SPR (Biacore 8K), sdAb-Fc captured on a Protein A chip, huSOX2 as analyte

T1 sequence (P48431 other isoform, or with tags, fused parts or gaps limits assumed): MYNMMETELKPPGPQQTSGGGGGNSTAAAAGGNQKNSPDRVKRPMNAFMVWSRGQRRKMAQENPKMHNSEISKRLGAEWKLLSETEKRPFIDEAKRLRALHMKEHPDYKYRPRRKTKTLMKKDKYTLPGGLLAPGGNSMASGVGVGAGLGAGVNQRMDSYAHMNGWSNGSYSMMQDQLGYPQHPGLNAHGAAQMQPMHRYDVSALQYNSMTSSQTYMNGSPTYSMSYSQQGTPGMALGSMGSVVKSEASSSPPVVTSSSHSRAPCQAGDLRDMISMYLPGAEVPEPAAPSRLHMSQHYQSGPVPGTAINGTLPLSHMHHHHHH

| Binder | koff [s⁻¹] | kon [M⁻¹ s⁻¹] | Kd [nM] |
| --- | --- | --- | --- |
| B1 | 0.000541 | 175000 | – |
| B2 | 0.000352 | 148000 | 2.39 |
| B3 | 0.000226 | 213000 | 1.06 |
